# Reference: patent US20240158504A1 (BJ BIOSCIENCE, published 2024)
# Residue numbers refer to the chain shown, from its start.
# B1: BJ-005-P2 (other)
# heavy: EVQLVQSGAEVKKPGSSVKVSCAASGFNITDTYMHWVRQAPGQGLEWIGWIDPANGHTKSDPKFQGKATITADTSTNTAYMELSSLRSEDTAVYYCARRGDGYRYFYAMGYWGQGTLVTVSSASTKGPSVFPLAPSSKSTSGGTAALGCLVKDYFPEPVTVSWNSGALTSGVHTFPAVLQSSGLYSLSSVVTVPSSSLGTQTYICNVNHKPSNTKVDKRV[human IgG1 Fc and a few adjoining residues not listed]GGGSGGGGSGGGGSGGGGSTIPPHVQKSVNNDMIVTDNNGAVKFPQLCKFCDVRFSTCDNQKSCMSNCSITSICEKPQEVCVAVWRKNDENITLETVCHDPKLPYHDFILEDAASPKCIMKEKKKPGETFFMCSCSSDECNDNIIFSEEYNTSNPD
# light: DIQMTQSPSTLSASVGDRVTITCRASQDISNYLNWYQQKPDQSPKLLIYYTSRLRSGVPARFSGSGSGTEYTLTISSLQPDDFATYYCQQGNTLPPTFGQGTKVEVKRTVAAPSVFIFPPSDEQLKSGTASVVCLLNNFYPREAKVQWKVDNALQSGNSQESVTEQDSKDSTYSLSSTLTLSKADYEKHKVYACEVTHQGLSSPVTKSFNRGEC
# B2: BJ-005-P1 (other)
# heavy: EVQLVQSGAEVKKPGSSVKVSCAASGFNITDTYMHWVRQAPGQGLEWIGWIDPANGHTKSDPKFQGKATITADTSTNTAYMELSSLRSEDTAVYYCARRGDGYRYFYAMGYWGQGTLVTVSSASTKGPSVFPLAPSSKSTSGGTAALGCLVKDYFPEPVTVSWNSGALTSGVHTFPAVLQSSGLYSLSSVVTVPSSSLGTQTYICNVNHKPSNTKVDKRV[human IgG1 Fc and a few adjoining residues not listed]GGGSGGGGSGGGGSGGGGSTIPPHVQKSVNNDMIVTDNNGAVKFPQLCKFCDVRFSTCDNQKSCMSNCSITSICEKPQEVCVAVWRKNDENITLETVCHDPKLPYHDFILEDAASPKCIMKEKKKPGETFFMCSCSSDECNDNIIFSEEYNTSNPD
# light: B1 light with D41G, Q42K, S43A
# B3: BJ-005-P3 (other)
# heavy: EVQLVQSGAEVKKPGSSVKVSCAASGFNIKDNYIHWVRQAPGQGLEWIGWIDPANTNTKYDPKFQGKATITADTSTNTAYMELSSLRSEDTAVYYCARRGDGYRYFYAMAYWGQGTLVTVSSASTKGPSVFPLAPSSKSTSGGTAALGCLVKDYFPEPVTVSWNSGALTSGVHTFPAVLQSSGLYSLSSVVTVPSSSLGTQTYICNVNHKPSNTKVDKRV[human IgG1 Fc and a few adjoining residues not listed]GGGSGGGGSGGGGSGGGGSTIPPHVQKSVNNDMIVTDNNGAVKFPQLCKFCDVRFSTCDNQKSCMSNCSITSICEKPQEVCVAVWRKNDENITLETVCHDPKLPYHDFILEDAASPKCIMKEKKKPGETFFMCSCSSDECNDNIIFSEEYNTSNPD
# light: B1 light with N31D, Y50H, R55H
# Target: TGF-β1
# Assay: cell-based or functional assay
row,"IC50 (nM), SEAP level of HEK-Blue TGF-β cells stimulated with TGF-β1",Binder
1,0.0388 nM,B1
2,0.0256 nM,B2
3,0.0579 nM,B3
